The record followed here is PubChem BioAssay AID360 (National Center for Advancing Translational Sciences (NCATS), 2006).

Hit rate of the full screen: of about 48,000 compounds, about 550 (1.1%) were called active. Roughly 4% stayed inconclusive and do not appear here. Rule as the data show it: active = potency below about 15 µM; inconclusive = mostly about 16 µM to 33 µM; inactive = weaker than that. Some of the results follow.
Potency is read from the fitted curve at half-maximal effect.

For the assay, the target named is Lysosomal acid glucosylceramidase (Homo sapiens) (UniProt P04062). Nature of the assay: Glucocerebrosidase.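 Also: the screen sought inhibitors.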 Particulars: purified enzyme, resorufin glucoside fluorescence (screen aimed at inhibitors), 20 min. Summed up: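 Wild-type enzyme at 0.2 nM final in 50mM citric acid/KH2PO4, 10mM sodium taurocholate, 0.01% tween-20, pH 5.9, with resorufin beta-D-glucopyranoside at 30 uM final. Compounds titrated, 20 min at RT, red fluorescence read; AC50 from titration.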
Chain of UniProt P04062 (P04062 whole entry, looked up): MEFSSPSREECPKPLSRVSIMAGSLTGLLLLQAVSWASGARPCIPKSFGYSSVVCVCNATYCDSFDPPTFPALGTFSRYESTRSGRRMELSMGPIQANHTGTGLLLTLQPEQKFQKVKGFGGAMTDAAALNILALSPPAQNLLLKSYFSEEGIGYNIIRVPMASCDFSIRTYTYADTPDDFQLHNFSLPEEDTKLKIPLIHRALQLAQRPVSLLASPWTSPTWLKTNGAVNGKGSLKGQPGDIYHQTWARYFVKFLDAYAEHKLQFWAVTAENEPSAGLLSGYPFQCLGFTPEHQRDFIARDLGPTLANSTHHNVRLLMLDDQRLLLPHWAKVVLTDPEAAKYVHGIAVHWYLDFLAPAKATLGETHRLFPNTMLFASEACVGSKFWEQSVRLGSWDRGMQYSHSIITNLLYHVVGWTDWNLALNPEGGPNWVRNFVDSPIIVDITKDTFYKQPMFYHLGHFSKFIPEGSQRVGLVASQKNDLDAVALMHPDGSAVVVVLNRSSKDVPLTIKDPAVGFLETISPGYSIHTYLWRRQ
For the compound `CN1CCN(C(c2ccc(F)cc2)c2nnnn2Cc2cccs2)CC1` (stereo not drawn), the Potency is inactive: > 76.9 µM.

On to `Cc1cc(Cl)cc(C)c1OCC(=O)O`, for which the Potency is inactive: > 76.9 µM.

Consider `CN(C)CCOC(=O)CCc1ccccc1`, for which the Potency was inactive: > 76.9 µM. Turning to `Cc1cccc(NC(=O)CN(C)S(=O)(=O)c2ccccc2)n1`, the Potency is inactive: > 76.9 µM. For `CC(C)(C)OC(=O)N1CCOCCOCCN(C(=O)OC(C)(C)C)CCOCC1` the value was inactive: > 76.9 µM; for `Fc1ccc(-c2nnc(SCc3ncc(-c4ccccc4)o3)n2CC2CCCO2)cc1` (stereo not drawn), inactive: > 76.9 µM.

On to `CCn1c(SCc2nc3ccccc3[nH]2)nnc1-c1cccs1`, for which the Potency is inactive: > 76.9 µM. The result for `c1ccc(-c2nc3cnccn3c2Nc2ccc3c(c2)OCCO3)cc1` reads inactive: > 76.9 µM; that for `CCOC(=O)C(CC)Sc1nc2c(c(=O)[nH]c(=O)n2C)n1C/C=C(/C)Cl` (stereo not drawn), inactive: > 76.9 µM; that for `Cc1c(C(=O)NCc2cccnc2)oc2ccc(S(=O)(=O)N3CCCC(C)C3)cc12` (stereo not drawn), inactive: > 76.9 µM. With `O=C(NCCCCNC(=O)c1ccco1)c1ccco1`, the Potency is inactive: > 76.9 µM.

Turning to `COC(=O)C1=C(Cn2cnc3ccccc32)NC(=O)NC1c1cc(C)ccc1C` (stereo not drawn), the Potency was inactive: > 76.9 µM. The result for `COCCn1nnnc1C(c1ccccc1OC)N1CCN(c2ccccc2)CC1` (stereo not drawn) reads inactive: > 76.9 µM; that for `COc1ccc(NC(=O)CN2CCC(n3c(C)nc4cc(F)ccc43)CC2)c(OC)c1`, inactive: > 76.9 µM; that for `CCN(CCO)C1CC(=O)N(c2ccccc2C)C1=O` (stereo not drawn), inactive: > 76.9 µM. The result for `COc1ccc(CCNC(=O)CCSc2nc(-c3ccco3)cc(C(F)(F)F)n2)cc1` reads inactive: > 76.9 µM; that for `Cc1cc(OCC(=O)N2CCOCC2)c(C(C)C)cc1Cl`, inactive: > 76.9 µM.

As to `Cc1nc2ccccc2nc1OCC(=O)N1CCN(c2ccccc2)CC1`, the Potency was inactive: > 76.9 µM.

As to `CC(Sc1nc(N)cc(=O)[nH]1)C(=O)NC1CCCCC1` (stereo not drawn), the Potency was inactive: > 76.9 µM.

For `COc1cccc(-c2nc(=S)c3c(n2CCCO)CCCC3)c1`, the Potency is inactive: > 76.9 µM. The result for `O=C(Oc1cccc2cccnc12)c1ccc(Br)o1` reads inactive: > 76.9 µM; that for `CCc1cc2c(SCC(=O)C(C#N)=C3N(C)c4ccccc4N3C)ncnc2s1`, inactive: > 76.9 µM; that for `COc1ccc(Cl)c(NCCC(=O)O)c1`, inactive: > 76.9 µM. The result for `CC(=O)N(C)c1ccc(OCC(O)CN(Cc2ccco2)S(=O)(=O)c2ccc(C)cc2)cc1` (stereo not drawn) reads inactive: > 76.9 µM. `CCOC(=O)c1oc2ccccc2c1NC(=O)COC`: the Potency is inactive: > 76.9 µM. For `COC(=O)c1ccccc1NC(=O)NCc1ccccn1` the value was inactive: > 76.9 µM; for `Cc1ccc2cc(CCNC(=O)c3ccco3)c(=O)[nH]c2c1`, inactive: > 76.9 µM.

As to `N=c1sccn1CC(=O)NCCc1ccc(Cl)cc1`, the Potency was inactive: > 76.9 µM. In the case of `CC1(N2CCOCC2)CC2(O)C(=[N+]1[O-])CCc1nonc12` (stereo not drawn), the Potency was inactive: > 76.9 µM. The result for `COC(=O)C1=C(C)NC2=C(C(=O)CCC2)C1c1cccc(C)n1` (stereo not drawn) reads inactive: > 76.9 µM.

Consider `CCOC(=O)C1=C(C)OC(N)=C(C(=O)OCC)C1c1cccnc1` (stereo not drawn), for which the Potency is inactive: > 76.9 µM. For the compound `CC(OC(=O)CCc1nc2ccccc2c(=O)[nH]1)C(=O)NCc1ccc2c(c1)OCO2` (stereo not drawn), the Potency was inactive: > 76.9 µM.

`COc1ccc(OC)c(S(=O)(=O)Nc2cccc(C(C)=O)c2)c1`: the Potency is inactive: > 76.9 µM. With `CCOC(=O)c1c(NS(=O)(=O)c2cccc(OC)c2)sc2c1CCC2`, the Potency is inactive: > 76.9 µM. The result for `Cc1nn(-c2ccccc2)c(C)c1P(=O)(c1ccccc1)N(C)C` (stereo not drawn) reads inactive: > 76.9 µM; that for `Nn1c(SCC(=O)NC(=O)NCc2ccccc2)nnc1C1CC1`, inactive: > 76.9 µM. For `CSc1cccc(NC(=O)CSc2nnc(C)s2)c1` the value was inactive: > 76.9 µM; for `Cc1ccc(N2CCN(c3ccc(C)cc3)C(CC(=O)O)C2=O)cc1` (stereo not drawn), inactive: > 76.9 µM; for `O=C(c1ccc(S(=O)(=O)N2CCOCC2)cc1)N1CCc2ccccc2C1`, inactive: > 76.9 µM.

As to `COc1ccc(C(=O)NCCn2cc(SCC(=O)N3CCOCC3)c3ccccc32)cc1`, the Potency is inactive: > 76.9 µM. For `Cc1ccc(S(=O)(=O)N[C@H](C(=O)N2CCC(C(=O)N3CCC[C@H]3C(=O)O)CC2)C(C)C)cc1` the value was inactive: > 76.9 µM; for `COc1ccc(CCNC(=O)c2cc3c(=O)n4cccc(C)c4nc3n(Cc3ccncc3)c2=N)cc1`, inactive: > 76.9 µM; for `COc1ccc(S(=O)(=O)Nc2ccccc2SC)cc1C`, inactive: > 76.9 µM. The result for `Cc1ccccc1CS(=O)(=O)CCC(=O)NCCCN1CCN(c2ccccc2F)CC1` reads inactive: > 76.9 µM; that for `CCOC(=O)CSc1nnc(CSc2nc3ccccc3s2)n1C`, inactive: > 76.9 µM; that for `O=C1CC(c2ccco2)CC(O)=C1C=NCC1NCCc2ccccc21` (stereo not drawn), inactive: > 76.9 µM. The result for `COCCn1c(COc2cccc(OC)c2)nnc1SCC(=O)N1CCOCC1` reads inactive: > 76.9 µM; that for `COCCCNC(=O)c1ccccc1SC`, inactive: > 76.9 µM; that for `O=C(NCCCCCNC(=O)c1cccnc1)c1cccnc1`, inactive: > 76.9 µM. Regarding `CN(CC(=O)Nc1sccc1C#N)C1CCCCC1`, the Potency was inactive: > 76.9 µM. As to `COC(=O)c1c(NC(=O)CN2CCC(C)CC2)c2c(C)cccc2n1C`, the Potency was inactive: > 76.9 µM.

For the compound `COc1ccc(OCc2nnc(SC3CCOC3=O)n2-c2ccccc2)cc1` (stereo not drawn), the Potency was inactive: > 76.9 µM. For `Cc1cccc(C)c1OCC(=O)Nc1ncn[nH]1` the value was inactive: > 76.9 µM; for `CCOC(=O)N1CCN(C(=O)CCS(=O)(=O)c2ccc(Br)s2)CC1`, inactive: > 76.9 µM. For `CCN(CC)C(=O)CN1CCC(n2c(C)nc3cc(C(F)(F)F)ccc32)CC1`, the Potency is inactive: > 76.9 µM.

For the compound `CSc1n[nH]c(NCc2cccs2)n1`, the Potency was inactive: > 76.9 µM.

As to `Oc1[nH]c2ccccc2c1/C=N/c1nccs1`, the Potency is inactive: > 76.9 µM.

With `c1cncc(-c2cccnc2)c1`, the Potency is inactive: > 76.9 µM.

Take `CC(C)NC(=O)Cn1cnc2c1c(=O)n(C)c(=O)n2C`: the Potency is inactive: > 76.9 µM. For `CCOc1ccc(-n2c(=O)[nH]cc(C(=O)N3CCCc4ccccc43)c2=O)cc1` the value was inactive: > 76.9 µM. As to `OC(Cc1nc2ccccc2[nH]1)c1ccccc1Cl` (stereo not drawn), the Potency is inactive: > 76.9 µM. With `O=C(CSc1nn(-c2ccc(F)cc2)c(=S)s1)N1CCN(C(=O)c2ccco2)CC1`, the Potency was inactive: > 76.9 µM.

In the case of `COc1ccc(S(=O)(=O)NCCC(=O)NCc2cccs2)cc1`, the Potency is inactive: > 76.9 µM.

For `CCCOC(=O)NC(CC)COC(=O)Nc1cc(C)ccc1C` (stereo not drawn), the Potency is inactive: > 76.9 µM. The result for `CCOc1cc(Br)c(C(=O)O)cc1OCC` reads inactive: > 76.9 µM; that for `Cc1[nH]c(=O)[nH]c(=O)c1NS(=O)(=O)c1ccc2c(c1)CCCC2`, inactive: > 76.9 µM. For `Cc1ccc(-n2c(SCC(N)=O)nnc2-c2ccccn2)cc1C` the value was inactive: > 76.9 µM; for `CCCOc1ccccc1-c1nc2c([nH]1)c(=O)[nH]c(=O)n2C`, inactive: > 76.9 µM; for `Cc1ccc(NC(=O)C2CC(=O)NC(Nc3cccc(C)c3)=N2)cc1` (stereo not drawn), inactive: > 76.9 µM.

With `Cc1cc(N2CC34C=CC(O3)C(C(=O)O)C4C2=O)no1` (stereo not drawn), the Potency was inactive: > 76.9 µM. For `O=C(O)CCCC(=O)Nc1ccc(Br)cc1C(=O)O` the value was inactive: > 76.9 µM. As to `COc1ccc(OC)c(Nc2ncnc3c2cnn3-c2ccccc2)c1`, the Potency is inactive: > 76.9 µM.

As for `CCOC(=O)c1ccc(NC(=O)N2CCN(S(C)(=O)=O)CC2)cc1`, the Potency was inactive: > 76.9 µM. For `Cc1ccc(S(=O)(=O)Nc2nsc(N)n2)cc1` the value was inactive: > 76.9 µM; for `COc1ccc2c(Cl)c(C(=O)NCCCn3ccnc3)sc2c1`, “inactive”. The result for `Cc1cc(NC(=O)CCCC(=O)O)nc(C)n1` reads inactive: > 76.9 µM; that for `CCc1c(C)nc(N)n2c(SCC(=O)N3CCN(c4ccccc4F)CC3)nnc12`, inactive: > 76.9 µM. Turning to `CCOc1ccc(-c2nnc(SCC(=O)N(CC)CC)n2N)cc1`, the Potency is inactive: > 76.9 µM. Regarding `CNC(=O)Nc1cc(C(C)(C)C)no1`, the Potency was inactive: > 76.9 µM. For `Cc1cc(=O)n2c(ccc3ccccc32)c1C#N` the value was inactive: > 76.9 µM; for `CCSc1nc2c(c(=O)[nH]c(=O)n2C)n1C`, inactive: > 76.9 µM; for `COc1ccccc1C(=O)Nn1c(C2CCC2)nc2ccccc2c1=O`, inactive: > 76.9 µM.

With `CC(=O)Nc1nc(C)c(Oc2ccccc2)c(=O)[nH]1`, the Potency was inactive: > 76.9 µM. For `Nc1nc(N2CCN(C/C=C/c3ccccc3)CC2)nc2ccccc12` the value was active: 8.42 µM. The result for `O=C(C1CC(=O)N(C2CCCC2)C1)N1CCC(Cc2ccccc2)CC1` (stereo not drawn) reads inactive: > 76.9 µM. For `COC(=O)c1[nH]c(C)c(/C(O)=C2\C(=O)C(=O)N(CCN(C)C)C2c2ccccc2OC)c1C` (stereo not drawn) the value was inactive: > 76.9 µM; for `CCCCOc1ccc(S(=O)(=O)NCc2csc(C)n2)cc1`, inactive: > 76.9 µM; for `O=C(Cn1cc(C(F)(F)F)ccc1=O)N1CCN(S(=O)(=O)c2ccccc2)CC1`, inactive: > 76.9 µM. Turning to `CCc1nc2ccccc2n1Cc1ccc(OC)c(OC)c1`, the Potency is inactive: > 76.9 µM. On to `CCOC(=O)c1nnn(CC(=O)Nc2cc(Cl)ccc2C)c1C(=O)OCC`, for which the Potency was inactive: > 76.9 µM. For `CCOC(=O)COc1nc(OC)nc(N2CCOCC2)n1` the value was inactive: > 76.9 µM; for `CCCOc1ccc(-c2nnn(CC(=O)OCC)n2)cc1`, inactive: > 76.9 µM; for `CCOC(=O)c1c(C)[nH]c(C)c1C(=O)CSc1nnc(-c2ccncc2)n1C`, “inactive”.
